The other results are listed elsewhere or left out. Values were computed here from the reads of four pooled replicates and scatter widely.
target: T1, Pho4 (S. cerevisiae) (UniProt P07270); assay: relative binding free energy (BET-seq); higher = weaker binding; conditions: reference: library average
T1 sequence: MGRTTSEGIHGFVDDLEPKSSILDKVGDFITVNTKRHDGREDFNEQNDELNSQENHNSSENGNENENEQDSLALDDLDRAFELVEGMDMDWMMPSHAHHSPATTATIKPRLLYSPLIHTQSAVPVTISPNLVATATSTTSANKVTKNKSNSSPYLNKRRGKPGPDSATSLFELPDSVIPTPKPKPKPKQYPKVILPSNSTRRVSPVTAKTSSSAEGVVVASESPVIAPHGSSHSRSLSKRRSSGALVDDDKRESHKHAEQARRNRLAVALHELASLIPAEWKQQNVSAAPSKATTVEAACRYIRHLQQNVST

Sequence | relative binding free energy
TTGGACACGTGGGTCG | -0.1 kcal/mol
ATTGGCACGTGGAGGC | 0.04 kcal/mol
GTCATCACGTGGTGTC | 0.26 kcal/mol
GCGGACACGTGTGTTA | 0.17 kcal/mol
TTACTCACGTGATTTT | 0.2 kcal/mol
CTTGGCACGTGAGATT | 0.14 kcal/mol
ACGTACACGTGAGGTG | 0.08 kcal/mol
TGAAGCACGTGTAAGT | -0.06 kcal/mol
CGATGCACGTGTGTGA | -0.05 kcal/mol
CTTGTCACGTGGGTGG | -0.08 kcal/mol
AGAATCACGTGAAGGT | 0.38 kcal/mol
AGCAGCACGTGGGTTT | -0.24 kcal/mol
TCGTTCACGTGGTGGA | 0.2 kcal/mol
CCCTTCACGTGTGGGG | 0.34 kcal/mol
TCGTACACGTGCGTGT | -0.06 kcal/mol
GGAATCACGTGCTAGG | 0.11 kcal/mol
TTCTGCACGTGTTAGG | -0.02 kcal/mol
GGTTACACGTGTGTTT | 0.18 kcal/mol
GGAGGCACGTGCTTGG | -0.09 kcal/mol
CGTTTCACGTGGAGGG | 0.29 kcal/mol
AGTGTCACGTGCGATG | 0.2 kcal/mol
AGAAACACGTGTGTTA | 0 kcal/mol
CGGGTCACGTGGAGTG | 0.05 kcal/mol

Sequence | relative binding free energy
GACGGCACGTGAGGGG | 0.31 kcal/mol
TTCCGCACGTGGGTAT | -0.11 kcal/mol
AGTGTCACGTGGTAGT | 0.08 kcal/mol
GGGTGCACGTGAGTTG | 0.28 kcal/mol
GGGTTCACGTGGGCAC | 0.27 kcal/mol
TTCGTCACGTGAAGTT | 0.3 kcal/mol
GCATGCACGTGTTATG | 0.01 kcal/mol
GGTTCCACGTGGGGGC | -0.04 kcal/mol
TTTGTCACGTGCACGT | 0.2 kcal/mol
AGTATCACGTGGCTTT | 0.1 kcal/mol
TAGGGCACGTGCATTT | -0.05 kcal/mol
ATTGGCACGTGTGGAA | -0.07 kcal/mol
TGTTGCACGTGGTTTA | 0 kcal/mol
GGTCTCACGTGTGGGA | 0.4 kcal/mol
CTAGTCACGTGTGGTT | 0.06 kcal/mol
CGGGTCACGTGTTTTT | 0.13 kcal/mol
ACTTGCACGTGGGATT | -0.02 kcal/mol
ATTAGCACGTGTAATT | 0.02 kcal/mol
TTTTTCACGTGGTAGC | 0.21 kcal/mol
ACTGTCACGTGAGAGG | 0.19 kcal/mol
GGGGTCACGTGGACGC | 0.21 kcal/mol
ATGTCCACGTGATTGG | 0.07 kcal/mol
TTTGGCACGTGGGATA | -0.18 kcal/mol

Sequence | relative binding free energy
CTTGTCACGTGGTTCT | 0.09 kcal/mol
TTCTACACGTGGCATG | 0.28 kcal/mol
GCGGCCACGTGTTTGG | 0.09 kcal/mol
CATGCCACGTGTTGGG | 0.03 kcal/mol
GGTGGCACGTGGAACT | 0.01 kcal/mol
TTCTTCACGTGGCGTG | 0.19 kcal/mol
GTTTTCACGTGAAGTT | 0.36 kcal/mol
AAGCGCACGTGGATGG | -0.01 kcal/mol
CTTAGCACGTGTTGAT | 0.05 kcal/mol
TAAAGCACGTGTAGTA | 0 kcal/mol
AGCTTCACGTGTATGT | 0.23 kcal/mol
AGTGGCACGTGCTTGG | -0.15 kcal/mol
GGGTTCACGTGGCTCT | 0.22 kcal/mol
AGTATCACGTGTCGTT | 0.1 kcal/mol
CGTGGCACGTGCTAGT | -0.06 kcal/mol
TTTTTCACGTGACGGG | 0.45 kcal/mol
CGTTTCACGTGTGATA | 0.24 kcal/mol
TTGTACACGTGTAATG | 0.13 kcal/mol
GTTGTCACGTGTCGGG | 0.1 kcal/mol
TTTGTCACGTGGCCAT | 0.07 kcal/mol
GCTGTCACGTGAGGAG | 0.35 kcal/mol
TGCTTCACGTGTATGT | 0.22 kcal/mol
TTCTTCACGTGCTATG | 0.33 kcal/mol

Sequence | relative binding free energy
CGTTGCACGTGGTAGG | -0.09 kcal/mol
TTATTCACGTGCATGT | 0.26 kcal/mol
GTGGTCACGTGTTGTT | 0.11 kcal/mol
ATTTTCACGTGGTATA | 0.21 kcal/mol
GGGCACACGTGTGGCA | 0.16 kcal/mol
TGGGGCACGTGGCTTC | -0.16 kcal/mol
TGATGCACGTGTGGGA | 0.01 kcal/mol
GTAGGCACGTGAGCTG | 0.22 kcal/mol
TAGCACACGTGTGGTA | 0.07 kcal/mol
CAATGCACGTGGATGG | -0.09 kcal/mol
TGAACCACGTGGGGGA | -0.24 kcal/mol
AAGGACACGTGGATTT | 0.13 kcal/mol
GCCGGCACGTGAGGGT | 0.25 kcal/mol
GGTTGCACGTGTGAGG | 0.13 kcal/mol
CTTTACACGTGAAGTG | 0.23 kcal/mol
TGCTGCACGTGTTGAT | 0.03 kcal/mol
TAGGACACGTGAGCTG | 0.21 kcal/mol
GTCGGCACGTGTATCG | 0.08 kcal/mol
TGGGACACGTGTAGTT | 0.15 kcal/mol
TCTATCACGTGTAGGT | 0.09 kcal/mol
TTGGACACGTGTTGAC | 0.14 kcal/mol
GATGACACGTGCGGGG | 0.07 kcal/mol
GGTGTCACGTGGGCCT | -0.11 kcal/mol

Sequence | relative binding free energy
TTGGACACGTGGTATC | -0.02 kcal/mol
AATGGCACGTGTTTGC | -0.08 kcal/mol
TTTTACACGTGGGCGA | 0.14 kcal/mol
TGGATCACGTGCGTGT | -0.04 kcal/mol
TTGGACACGTGGAAGA | 0.06 kcal/mol
TGGGGCACGTGGTTGC | -0.14 kcal/mol
GTTTGCACGTGACAGG | 0.29 kcal/mol
TTATGCACGTGGATTA | 0.02 kcal/mol
TTCAGCACGTGTGAAT | -0.03 kcal/mol
TTAGTCACGTGAATGC | 0.32 kcal/mol
TCAATCACGTGGTTGT | 0.07 kcal/mol
GGGGGCACGTGTATAC | 0.06 kcal/mol
AGTGGCACGTGGTTTC | -0.1 kcal/mol
TAGCTCACGTGGGTAT | 0.15 kcal/mol
CAGTACACGTGGTGGA | 0.03 kcal/mol
GATGGCACGTGTGTTG | -0.01 kcal/mol
TCTGTCACGTGTTTTA | -0.05 kcal/mol
TTGGTCACGTGGTAGG | 0.13 kcal/mol
GTACACACGTGGCGGG | -0.04 kcal/mol
TTTAGCACGTGGTAGT | -0.16 kcal/mol
GCATGCACGTGTGGTA | -0.08 kcal/mol
TGTAGCACGTGGCTCG | -0.15 kcal/mol
TAAGGCACGTGGCTTA | -0.23 kcal/mol

— the BET-seq Pho4 binding data (Le et al. 2018)
